# From the supplement of paper PMC4604168 (melanoma cell lines)
# The list shows a part of the results. Repeats are few or missing, and single values can be far off.
# Tested on: UACC257
# Test: cell count relative to DMSO control; melanoma cells; higher = more viable cells
# Details: library dose: low library concentration; 72 h
# 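Further: cell number obtained by counting DAPI-stained nuclei in high-throughput microscope images with image analysis software, screen run in 1,536-well plates.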
row,Structure (SMILES),cell count [%]
1,"C#Cc1cccc(Nc2ncnc3cc(OCCOC)c(OCCOC)cc23)c1 [erlotinib] + Cc1cc([N+](=O)[O-])ccc1NS(=O)(=O)c1cc(Cl)ccc1Cl [FH535] (first compound 0.8 µM, partner dose 1 µM)",74.4
2,"COCC[n+]1c2c(n(Cc3cnccn3)c1C)C(=O)c1ccccc1C2=O + COc1cc2ncnc(Nc3ccc(Oc4ccccc4)cc3)c2cc1OC [SrcI1] (first compound 0.0004 µM, partner dose 2 µM)",92.7
3,"Nc1cccc2c1CN(C1CCC(=O)NC1=O)C2=O (stereo unspecified) [lenalidomide] + O=c1cc(-c2cccc3c2Sc2ccccc2S3)oc(N2CCOCC2)c1 [KU55933] (first compound 1 µM, partner dose 1 µM)",111
4,"Nc1cccc2c1CN(C1CCC(=O)NC1=O)C2=O (stereo unspecified) [lenalidomide] + COc1ccc(-c2ccc3c(N4CCOCC4)nc(N4C[C@@H](C)O[C@@H](C)C4)nc3n2)cc1CO [KU0063794] (first compound 1 µM, partner dose 0.02 µM)",81.6
5,"Nc1cccc2c1CN(C1CCC(=O)NC1=O)C2=O (stereo unspecified) [lenalidomide] + Cc1cc([N+](=O)[O-])ccc1NS(=O)(=O)c1cc(Cl)ccc1Cl [FH535] (first compound 1 µM, partner dose 1 µM)",102
6,"Nc1cccc2c1CN(C1CCC(=O)NC1=O)C2=O (stereo unspecified) [lenalidomide] + COc1cc2ncnc(Nc3ccc(Oc4ccccc4)cc3)c2cc1OC [SrcI1] (first compound 1 µM, partner dose 2 µM)",84.5
7,"Cn1c(Nc2ccc(C(F)(F)F)cc2)nc2cc(Oc3ccnc(-c4ncc(C(F)(F)F)[nH]4)c3)ccc21 + COc1ccc2c(c1)CCC1C2CCC2(C)C(NCCCCCCN3C(=O)C=CC3=O)CCC12 [U73122] (first compound 0.08 µM, partner dose 0.4 µM)",39.9
8,"Cn1c(Nc2ccc(C(F)(F)F)cc2)nc2cc(Oc3ccnc(-c4ncc(C(F)(F)F)[nH]4)c3)ccc21 + O=C(O)C(=O)Nc1sc2c(c1C(=O)O)CCNC2 [TCS401] (first compound 0.08 µM, partner dose 1.66667 µM)",45.1
9,"O=C(CCCCCCC(=O)Nc1ccccc1)NO [vorinostat] + Oc1cc(-c2nc(-c3ccccc3)[nH]c2-c2ccncc2)ccc1Cl [L779450] (first compound 0.08 µM, partner dose 0.2 µM)",102
10,"O=C(CCCCCCC(=O)Nc1ccccc1)NO [vorinostat] + O=C1NC(=O)/C(=C/c2ccc(-c3ccc(F)cc3O)o2)S1 [AS252424] (first compound 0.08 µM, partner dose 1 µM)",88.4
11,"COCC[n+]1c2c(n(Cc3cnccn3)c1C)C(=O)c1ccccc1C2=O + Oc1nc(-c2ccc(C(F)(F)F)cc2)nc2c1CSCC2 [XAV939] (first compound 0.0004 µM, partner dose 2 µM)",89.8
12,"C#Cc1cccc(Nc2ncnc3cc(OCCOC)c(OCCOC)cc23)c1 [erlotinib] + CCN(CC)CCCCNc1ncc2cc(-c3cc(OC)cc(OC)c3)c(NC(=O)NC(C)(C)C)nc2n1 [PD173074] (first compound 0.8 µM, partner dose 0.1 µM)",85
13,"COCC[n+]1c2c(n(Cc3cnccn3)c1C)C(=O)c1ccccc1C2=O + c1cc(-c2cnn3cc(-c4ccc(OCCN5CCCCC5)cc4)cnc23)ccn1 [Dorsomorphin] (first compound 0.0004 µM, partner dose 0.4 µM)",73.9
14,"O=C(CCCCCCC(=O)Nc1ccccc1)NO [vorinostat] + O=C(Nc1ccccc1)c1cc([N+](=O)[O-])ccc1Cl [GW9662] (first compound 0.08 µM, partner dose 2 µM)",93.7
15,"Nc1cccc2c1CN(C1CCC(=O)NC1=O)C2=O (stereo unspecified) [lenalidomide] + O=C(O)C(=O)Nc1sc2c(c1C(=O)O)CCNC2 [TCS401] (first compound 1 µM, partner dose 1.66667 µM)",93.7
16,"COCC[n+]1c2c(n(Cc3cnccn3)c1C)C(=O)c1ccccc1C2=O + O=c1cc(-c2cccc3c2Sc2ccccc2S3)oc(N2CCOCC2)c1 [KU55933] (first compound 0.0004 µM, partner dose 1 µM)",88.3
